Results from PubChem BioAssay AID588382 (National Center for Advancing Translational Sciences (NCATS), 2011).
About 150 (12%) of roughly 1,300 compounds were called active. This list was built around the results that the source calls inconclusive (neither active nor inactive); the mix of calls is not that of the screen. Calls follow the shape of the dose curve; as a rule, active = well fitted cell-killing curve with a large enough effect; inconclusive = small, poorly fitted or top-dose-only effect, or effect the other way; inactive = flat fitted curve, though single readings scatter. A potency beside an inconclusive call is a rough fit, not a confirmed value.

experiment: qHTS of small molecules that selectively kill Giardia lamblia: Hit Validation in HepG2 cytotox; details: cell viability; Potency: HepG2 cytotoxicity; series mostly up to 38.3 µM;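 also: compound exposure lasted overnight at 37 deg C; nearly all actives have a fitted effect of over 55% in size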
Source text: Giardia lamblia is a human pathogen afflicting impoverished nations, and the most common cause of outbreaks of diarrhea in the United States. Giardia has been classified by the CDC as a category B bioterrorism organism. The favored anti giardiasis drugs in the US are metronidazole or tinidazole, compounds that have undesirable side effects. Moreover, increasing resistance to drug regimes and recurrence are a concern. It is thus clear that alternative drug treatments are needed.
In a collaboration between the University of Maryland, College Park and the NIH Chemical Genomics Center, a bioluminescence Giardia viability assay based on the trophozoites' ATP content was developed. This assay is suitable for high throughput screening, and miniaturized the assay for compound screening in 1536-well plates. The goal of the project is to screen the Molecular Libraries Small Molecule Repository (MLSMR) for compounds that selectively kill Giardia trophozoites. This counterscreen looks at the toxicity of the compounds against the human HepG2 cell line.
NIH Chemical Genomics Center [NCGC]
NIH Molecular Libraries Probe Centers Network [MLPCN]
Assay Submitter (PI): Osnat Herzberg, University of Maryland, College Park, MD.
4 uL of HepG2 cells ae dispensed into white 1536-well plates. They are incubated overnight at 37 deg C and then 23 nL of compounds are transferred to the wells with a pintool. Plates are incubated overnight at 37 deg C. 2 uL of ATPLite is added and the plates are incubated for 15 min at room temperature before they are read on the ViewLux for luminiescence.
Potency is read from the fitted curve at half-maximal effect; tags tell the direction and shape of the fitted curve.

SMILES | Potency
COC(=O)C12OCC34C(CC5C(C)=C(O)C(=O)CC5(C)C3C(O)C1O)OC(=O)C(OC(=O)/C=C(\C)C(C)C)C24 (configuration not stated) | inconclusive: 736 nM [cytotoxic, partial curve]
O=[N+]([O-])c1cc([As](=O)(O)c2ccc(O)c([N+](=O)[O-])c2)ccc1O | inconclusive: 7360 nM [rising, partial curve]
CC(=O)OC[C@]12CCC(C)=C[C@H]1O[C@@H]1[C@H](O)[C@@H](OC(C)=O)[C@@]2(C)[C@]12CO2 | inconclusive: 131 nM [cytotoxic, full curve, poor fit]
C[N+]12CCC(CC1)C(=C(c1ccccc1)c1ccccc1)C2 | inactive
C[C@@H]1C[C@@H]([C@H](O)CC2CC(=O)NC(=O)C2)C(=O)[C@@H](C)C1 | inactive
c1ccc2c(c1)[IH]c1ccccc1-2 | active: 92.7 nM
CC1=C(N2CC2)C(=O)C(CO)=C(N2CC2)C1=O | active: 65.6 nM
Cc1nc2ccccc2c(=O)n1-c1cc([N+](=O)[O-])cc([N+](=O)[O-])c1 | inactive
CC1CC(C)(O)CC(C(O)CC2CC(=O)NC(=O)C2)C1=O (configuration not stated) | inconclusive: 1310 nM [cytotoxic, full curve, poor fit]
NC(=O)c1cc(N2CC2)c([N+](=O)[O-])cc1[N+](=O)[O-] | inactive
COC12C(COC(N)=O)C3=C(C(=O)C(C)=C(N)C3=O)N1CC1C2N1C (configuration not stated) | inconclusive: 10400 nM [cytotoxic, single point]
CC(C)(O)C1C2OC(=O)C1C1(O)CC3OC34C(=O)OC2C14C (configuration not stated) | inactive
ClCCOCCCl | inconclusive: 826 nM [rising, full curve, poor fit]
CCOC(=O)C1CCCN(c2ccc([N+](=O)[O-])c3nonc23)C1 (configuration not stated) | inactive
O=c1c2ccccc2nc(/C=C/c2ccc(O)cc2)n1-c1cccc(O)c1 | inactive
COc1ccc(CC2NCC(O)C2OC(C)=O)cc1 (configuration not stated) | inconclusive: 1470 nM [cytotoxic, full curve]
NN=C(N)N | inactive
CN1CCCN(c2ccc([N+](=O)[O-])nc2)CC1 | inconclusive: 9270 nM [rising, partial curve, poor fit]
CN(c1ccccc1)c1ccc([N+](=O)[O-])c2nonc12 | inactive
CCCCn1c(=O)c(C(=O)NCc2ccccc2OC)c(O)c2ccccc21 | inactive
CCOc1ccc(-c2cc(C(=O)N3CCC4(CC3)OCCO4)c3ccccc3n2)cc1 | inconclusive: 7360 nM [cytotoxic, partial curve, poor fit]

SMILES | Potency
Cc1ncc([N+](=O)[O-])n1CCOc1nonc1N | inconclusive: 8260 nM [rising, partial curve, poor fit]
CC1CC(C)CC(C)C(O)C(C#N)=CC=CCC(C2CCCC2C(=O)O)OC(=O)CC(O)C(C)C1 (configuration not stated) | active: 2330 nM
COc1ccc(OC(=O)N2C/C(=C/c3ccccc3)C(=O)/C(=C\c3ccccc3)C2)cc1 | inconclusive: 26100 nM [cytotoxic, single point]
CN1CCN(c2ccc([N+](=O)[O-])c3cccnc23)CC1 | inactive
COC(/C(C)=C/C=C/C(C)=C/c1coc(C)n1)C(C)C1CC(O)C2(C)OC2C=CC(C)C2CC(CC(=O)O2)CC2OC2C(=O)O1 (configuration not stated) | inconclusive: 1170 nM [rising, partial curve, poor fit]
Cc1nc2c(=O)n(C)c(=O)nc-2n(C)n1 | active: 656 nM
Cc1nnc2ccc(-c3cccc(C(F)(F)F)c3)nn12 | inconclusive: 92.7 nM [cytotoxic, full curve]
Cc1cccc(-n2c(/C=C/c3ccc([N+](=O)[O-])o3)nc3ccccc3c2=O)c1 | inconclusive: 26100 nM [cytotoxic, single point]
Cc1ccc(-c2nc3c(=O)n(C)c(=O)nc-3n(C)n2)cc1 | inconclusive: 20700 nM [cytotoxic, partial curve, poor fit]
COc1ccc(C[C@H]2NC[C@H](O)[C@H]2OC(C)=O)cc1 | inconclusive: 585 nM [cytotoxic, full curve]
CC1Oc2cc3c(-c4c(O)cc(O)c5c(O)c6c(cc45)OC(C)C(C)C6=O)c(O)cc(O)c3c(O)c2C(=O)C1C (configuration not stated) | inconclusive: 3290 nM [cytotoxic, full curve]
Cn1nc(-c2ccccc2)nc2c(=O)n(C)c(=O)nc1-2 | inconclusive: 26100 nM [cytotoxic, single point]
[Hg+][c]1ccccc1 | active: 1850 nM
O=[N+]([O-])c1oc2ccc3ccccc3c2c1CCO | inconclusive: 5850 nM [cytotoxic, partial curve]
C[C@H]1C[C@@H](C)C(=O)[C@@H]([C@H](O)CC2CC(=O)NC(=O)C2)C1 | inactive
Cc1ncc([N+](=O)[O-])n1CCOC(N)=O | inconclusive: 7360 nM [rising, partial curve]
COC(=O)c1nc(-c2ccc3c(n2)C(=O)C(N)=C(OC)C3=O)c(N)c(-c2ccc(OC)c(OC)c2O)c1C | active: 1040 nM
CCn1nc(/C=C/c2ccccc2)nc2c(=O)n(C)c(=O)nc1-2 | active: 6560 nM
Cc1cc([N+](=O)[O-])c2ccccc2[n+]1[O-] | active: 1170 nM
CNC(=O)Oc1cccc(-c2cn3cc(Cl)ccc3n2)c1 | active: 1850 nM
CC(=O)OC1(C)CC(C)C(=O)C(C(O)CC2CC(=O)NC(=O)C2)C1 (configuration not stated) | inconclusive: 414 nM [cytotoxic, full curve]
